Reference: patent US5175190A, “Medium chain fatty acids of C8-10 for the treatment of skin lesions” (priority 1991, dated 1992)
One block for each compound: values may come before it.

Experiments:
[1] = no test described; cited from earlier work
[2] = mouse, in vivo
[3] = test system: Tumor (intra-hepatic); conditions: tumor cells implanted in liver, around 80 mg
[4] = test system: rodent tumor cells and normal lymphocytes; conditions: no test described; cited from earlier work
[5] = no test described, cited from earlier work
[6] = directly into the bloodstream; no test described; cited from earlier work
[7] = test system: β-oxidation of fatty acids; conditions: no test described; cited from earlier work
[8] = test system: transplanted tumor M114; experiment: Treatment of implanted liver tumors in mice with sodium caprylate; type: in vivo
Protocol: Mice were implanted with tumors and the tumors allowed to grow for six days. At this time, the tumor is about 5 mm or so in diameter, weighing 30 mg, and its own vascularization is well established. Mice were injected once daily intraperitoneally with 100 μmoles sodium caprylate, mixed with sucrose. Treatment continued for four days, then stopped. […] Tumors were treated and then removed a few hours later in order to examine the effects microscopically.

[9] = test system: Nb2 tumor; experiment: Treatment of rats implanted with the Nb2 tumor
[10] = Distribution of 1-^14 C-oleic acid in liver lipids (TLC zones); conditions: mouse, in vivo
Protocol: The distribution of radioactivity was examined. Liver tissue was extracted with methanol: chloroform (1:2) and the chloroform phase was evaporated and spotted on thin layer chromatogram sheets. Autoradiograms were prepared and three zones were eluted, corresponding to esterified nonpolar lipids, fatty acids and phospholipids (Table 2).

[11] = Uptake by adipose tissue; type: in vivo; conditions: mice; after 30 min
Protocol: (§1) In a few experiments, other tissues were examined. […] In mice, portal blood after 30 min. contained 0.33 μmoles/ml.

[12] = Uptake by lung; type: in vivo; conditions: rat; one experiment
Protocol: as §1

[13] = test system: Tumor (W256); conditions: rat, W256, intraportal

Structure (SMILES): CCCCCCCC/C=C\CCCCCCCC(=O)O [oleic acid]
reduction of stratum corneum barrier [1]: greatly reduced

Structure (SMILES): CCCCCCCC(=O)O [caprylic acid, octanoic acid]
initial uptake compared with oleic acid [2]: considerably higher than that of oleic acid
sufficiency of uptake by tumor cells for lysis [3]: clearly sufficient
lytic activity [4]: lytic
oxidation to CO2 compared with oleic acid [5]: Considerably more
rate of oxidation ([5]; β-oxidation): oxidized very rapidly
absorption from the gut [6]: rapidly absorbed

Structure (SMILES): CC(C)=CCC/C(C)=C/C(=O)O [geranic acid]
effect on cytolytic effect of other fatty acids [4]: enhances the cytolytic effect of other fatty acids
lytic activity [4]: lytic
block of β-oxidation of fatty acids [7]: blocks β-oxidation of fatty acids

Structure (SMILES): CCCCCCCC(=O)[O-].[Na+] [sodium caprylate]
microscopic effects on tumor ([8]; after four hours): many cells with damaged nuclei were evident
tumor growth ([8]; day 20, 100 μmoles ip once daily for four days from day 6): the tumors had recurred, but were smaller, being about one week behind controls in growth
microscopic effects on tumor cells that invaded the lung ([8]; one instance): the same evidence of damage as in the liver
tumor eradication ([8]; treatment begun day 4 following implantation, tumors about 3 mm): eradicated by day 8
microscopic effects on tumor ([8]; two injections four hours apart, three hours later): extensive destruction, with considerable lysis having occurred
tolerance of ip injection [9]: did not tolerate ip injection of sodium caprylate well

% Distribution, free fatty acids [10]: 12%
% Distribution, neutral nonpolar lipids [10]: 57.2 ± 4%
% Distribution, phospholipids [10]: 30.8 ± 3%
% Distribution, total esterified fatty acids [10]: 88.0%
uptake by lung compared with liver [12]: the same as liver
uptake by tumor compared with liver [13]: the same as surrounding liver tissue
Structure (SMILES): CCCCCCCC/C=C\CCCCCCC[14C](=O)O [1-^14 C-oleic acid]
uptake by adipose tissue compared with liver [11]: varied and was sometimes much higher than liver
